Test results reported in the supplement of paper PMC10369915.
The other results are listed elsewhere or left out. Cut-off read from the data, not from the text of the source: active = 3.2 or more and inactive = the rest. The signal is at background level for most entries.

Key:
Experiment in all cases: enrichment score (SH2-bound / input frequency) (ratio); bacterial display of known human phosphotyrosine sites (pTyr-Var adds point mutants) read by sequencing; higher = stronger binding; tyrosines were phosphorylated by kinases first
Details in all cases: peptide library: Human pTyr
SHP2 C-SH2 domain E139D = molecular target: SHP2 C-SH2 domain E139D
[1] = molecular target: SHP2 C-SH2 domain wild-type
SHP2 N-SH2 domain L43F = molecular target: SHP2 N-SH2 domain L43F
SHP2 N-SH2 domain T42A = molecular target: SHP2 N-SH2 domain T42A
SHP2 N-SH2 domain T52S = molecular target: SHP2 N-SH2 domain T52S
[2] = molecular target: SHP2 N-SH2 domain wild-type

Measured: enrichment score
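Note: displayed peptides selected on beads carrying the immobilized SH2 domain, with library peptides lacking any tyrosine serving as negative controls.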

DGQEAPIYELTSQFT [CASP8_HUMAN_334]
inactive: SHP2 C-SH2 domain E139D 0.88 | [1] 0.606 | SHP2 N-SH2 domain L43F 0.724 | SHP2 N-SH2 domain T42A 0.809 | SHP2 N-SH2 domain T52S 0.834 | [2] 0.742

DDYDAGRYSPRLLTA [CATIN_HUMAN_559]
inactive: SHP2 C-SH2 domain E139D 0.537 | [1] 0.418 | SHP2 N-SH2 domain L43F 0.519 | SHP2 N-SH2 domain T42A 0.412 | SHP2 N-SH2 domain T52S 0.421 | [2] 0.485

EEPAPLSYDSRPRAE [ZO1_HUMAN_1140_YA]
inactive: SHP2 C-SH2 domain E139D 0.732 | [1] 0.588 | SHP2 N-SH2 domain L43F 0.84 | SHP2 N-SH2 domain T42A 0.684 | SHP2 N-SH2 domain T52S 0.772 | [2] 0.719

AQPAQSIYVGGMMEG [BCR_HUMAN_283_YA]
inactive: SHP2 C-SH2 domain E139D 0.749 | [1] 0.665 | SHP2 N-SH2 domain L43F 0.872 | SHP2 N-SH2 domain T42A 0.638 | SHP2 N-SH2 domain T52S 0.765 | [2] 0.761

SVHDAFEFCPEFWDK [NegativeControl04_Phe]
inactive: SHP2 C-SH2 domain E139D 1.13 | [1] 1.06 | SHP2 N-SH2 domain L43F 1.33 | SHP2 N-SH2 domain T42A 0.908 | SHP2 N-SH2 domain T52S 1.06 | [2] 1.36

DIAKDPDYVRKGSAR [VGFR3_HUMAN_1068_YA]
inactive: SHP2 C-SH2 domain E139D 0.954 | [1] 0.716 | SHP2 N-SH2 domain L43F 0.86 | SHP2 N-SH2 domain T42A 0.702 | SHP2 N-SH2 domain T52S 0.894 | [2] 0.844

EQGSNRRYQVSALHT [VW5B1_HUMAN_881]
inactive: SHP2 C-SH2 domain E139D 0.995 | [1] 0.748 | SHP2 N-SH2 domain L43F 0.643 | SHP2 N-SH2 domain T42A 0.752 | SHP2 N-SH2 domain T52S 0.931 | [2] 0.871

ISFLQGNYELLPGNQ [BORG2_HUMAN_63]
inactive: SHP2 C-SH2 domain E139D 0.763 | [1] 0.708 | SHP2 N-SH2 domain L43F 0.78 | SHP2 N-SH2 domain T42A 0.697 | SHP2 N-SH2 domain T52S 0.681 | [2] 0.684

KKDGLKFYTDPSAFF [WASF3_HUMAN_151_YA]
inactive: SHP2 C-SH2 domain E139D 0.977 | [1] 0.943 | SHP2 N-SH2 domain L43F 1.04 | SHP2 N-SH2 domain T42A 1.04 | SHP2 N-SH2 domain T52S 0.984 | [2] 1.23

KMAPFATFSFWAQCI [NegativeControl08_Phe]
inactive: SHP2 C-SH2 domain E139D 1.81 | [1] 1.46 | SHP2 N-SH2 domain L43F 1.55 | SHP2 N-SH2 domain T42A 1.52 | SHP2 N-SH2 domain T52S 2.24 | [2] 2.32

TFFTDNSYGGGGGGG [VGFR3_HUMAN_1363]
inactive: SHP2 C-SH2 domain E139D 0.707 | [1] 0.644 | SHP2 N-SH2 domain L43F 0.683 | SHP2 N-SH2 domain T42A 0.542 | SHP2 N-SH2 domain T52S 0.605 | [2] 0.628

DTRDNVYYYDEEGGG [CADH1_HUMAN_754]
inactive: SHP2 C-SH2 domain E139D 0.758 | [1] 0.971 | SHP2 N-SH2 domain L43F 1.19 | SHP2 N-SH2 domain T42A 0.915 | SHP2 N-SH2 domain T52S 0.83 | [2] 0.842

EGEEDTEYMTPSSRP [CBL_HUMAN_700]
inactive: SHP2 C-SH2 domain E139D 0.991 | [1] 1.01 | SHP2 N-SH2 domain L43F 0.901 | SHP2 N-SH2 domain T42A 0.859 | SHP2 N-SH2 domain T52S 0.822 | [2] 1.01

EENADDSYEPPPVEQ [BLNK_HUMAN_96]
inactive: SHP2 C-SH2 domain E139D 0.983 | [1] 0.81 | SHP2 N-SH2 domain L43F 0.76 | SHP2 N-SH2 domain T42A 0.773 | SHP2 N-SH2 domain T52S 0.92 | [2] 0.666

SENEDDGYDVPKPPV [CBL_HUMAN_774]
inactive: SHP2 C-SH2 domain E139D 1.09 | [1] 0.782 | SHP2 N-SH2 domain L43F 0.781 | SHP2 N-SH2 domain T42A 0.705 | SHP2 N-SH2 domain T52S 0.9 | [2] 0.879

GHRKYREYSPPYAPS [ZC3H4_HUMAN_158]
inactive: SHP2 C-SH2 domain E139D 0.945 | [1] 0.762 | SHP2 N-SH2 domain L43F 0.769 | SHP2 N-SH2 domain T42A 0.907 | SHP2 N-SH2 domain T52S 1.06 | [2] 1.2

CIVTYCEYCQEEKTL [ZMYM2_HUMAN_683]
inactive: SHP2 C-SH2 domain E139D 1.79 | [1] 2.59 | SHP2 N-SH2 domain L43F 1.68 | SHP2 N-SH2 domain T42A 1.99 | SHP2 N-SH2 domain T52S 1.82 | [2] 2.71

KTTLGWKYEQAFETS [YPEL4_HUMAN_98]
inactive: SHP2 C-SH2 domain E139D 0.811 | [1] 0.807 | SHP2 N-SH2 domain L43F 0.856 | SHP2 N-SH2 domain T42A 0.646 | SHP2 N-SH2 domain T52S 0.936 | [2] 0.755

SDDFDSDYENPDEHS [BLNK_HUMAN_72]
inactive: SHP2 C-SH2 domain E139D 1.28 | [1] 1.28 | SHP2 N-SH2 domain L43F 1.42 | SHP2 N-SH2 domain T42A 1.56 | SHP2 N-SH2 domain T52S 1.17 | [2] 1.4

WVRKTPWYQGGGGGG [VINC_HUMAN_1133]
active: [2] 3.56
inactive: SHP2 C-SH2 domain E139D 2.87 | [1] 2.66 | SHP2 N-SH2 domain L43F 2.5 | SHP2 N-SH2 domain T42A 2.89 | SHP2 N-SH2 domain T52S 2.69

TVHKLSAYEADFERG [BTK_HUMAN_40_YA]
inactive: SHP2 C-SH2 domain E139D 1.13 | [1] 0.891 | SHP2 N-SH2 domain L43F 0.646 | SHP2 N-SH2 domain T42A 0.796 | SHP2 N-SH2 domain T52S 0.682 | [2] 0.691

IRDEVEKYNRNGVNA [WDR48_HUMAN_28]
inactive: SHP2 C-SH2 domain E139D 0.772 | [1] 0.639 | SHP2 N-SH2 domain L43F 0.677 | SHP2 N-SH2 domain T42A 0.65 | SHP2 N-SH2 domain T52S 0.771 | [2] 0.714

EEPAPLSYDSRPRYE [ZO1_HUMAN_1140]
inactive: SHP2 C-SH2 domain E139D 0.677 | [1] 0.556 | SHP2 N-SH2 domain L43F 0.679 | SHP2 N-SH2 domain T42A 0.647 | SHP2 N-SH2 domain T52S 0.574 | [2] 0.589

TILTEVNYEVSNKDD [CASP8_HUMAN_448]
inactive: SHP2 C-SH2 domain E139D 0.773 | [1] 0.69 | SHP2 N-SH2 domain L43F 0.631 | SHP2 N-SH2 domain T42A 0.789 | SHP2 N-SH2 domain T52S 0.769 | [2] 1.18

ALEETKAYTTQSLAS [ABI1_HUMAN_53]
inactive: SHP2 C-SH2 domain E139D 0.503 | [1] 0.569 | SHP2 N-SH2 domain L43F 0.552 | SHP2 N-SH2 domain T42A 0.564 | SHP2 N-SH2 domain T52S 0.549 | [2] 0.642

IREQGNIYKPNNKAM [CAV1_HUMAN_25]
inactive: SHP2 C-SH2 domain E139D 0.922 | [1] 1.01 | SHP2 N-SH2 domain L43F 0.918 | SHP2 N-SH2 domain T42A 0.915 | SHP2 N-SH2 domain T52S 1.08 | [2] 1.21

ALGADDSYYTARSAG [ZAP70_HUMAN_492]
inactive: SHP2 C-SH2 domain E139D 0.649 | [1] 0.383 | SHP2 N-SH2 domain L43F 0.633 | SHP2 N-SH2 domain T42A 0.526 | SHP2 N-SH2 domain T52S 0.584 | [2] 0.468

GLITTLHYPAPKRNK [ABL1_HUMAN_215]
inactive: SHP2 C-SH2 domain E139D 0.926 | [1] 0.961 | SHP2 N-SH2 domain L43F 0.893 | SHP2 N-SH2 domain T42A 0.867 | SHP2 N-SH2 domain T52S 0.932 | [2] 0.756

EENGEDPYAGSTDEN [XRCC1_HUMAN_515]
inactive: SHP2 C-SH2 domain E139D 1.21 | [1] 1.12 | SHP2 N-SH2 domain L43F 0.983 | SHP2 N-SH2 domain T42A 1.41 | SHP2 N-SH2 domain T52S 1.03 | [2] 1.22

GQLTFLNAGFMTHNA [NegativeControl01_Ala]
inactive: SHP2 C-SH2 domain E139D 1.4 | [1] 0.959 | SHP2 N-SH2 domain L43F 1.31 | SHP2 N-SH2 domain T42A 0.952 | SHP2 N-SH2 domain T52S 1.25 | [2] 0.94

CIVTACEYCQEEKTL [ZMYM2_HUMAN_683_YA]
inactive: SHP2 C-SH2 domain E139D 1.48 | [1] 1.43 | SHP2 N-SH2 domain L43F 1.1 | SHP2 N-SH2 domain T42A 1.46 | SHP2 N-SH2 domain T52S 1.24 | [2] 1.44

TASDGKLYVSSESRF [ABL1_HUMAN_185]
inactive: SHP2 C-SH2 domain E139D 0.644 | [1] 0.527 | SHP2 N-SH2 domain L43F 0.697 | SHP2 N-SH2 domain T42A 0.733 | SHP2 N-SH2 domain T52S 0.662 | [2] 0.56

EQGAAAIYTTQMDDF [VIL1_HUMAN_81]
inactive: SHP2 C-SH2 domain E139D 0.664 | [1] 0.538 | SHP2 N-SH2 domain L43F 0.691 | SHP2 N-SH2 domain T42A 0.697 | SHP2 N-SH2 domain T52S 0.644 | [2] 0.586

TSVAESPYSDPEELK [ZAP70_HUMAN_319_YA]
inactive: SHP2 C-SH2 domain E139D 0.955 | [1] 0.9 | SHP2 N-SH2 domain L43F 0.875 | SHP2 N-SH2 domain T42A 0.931 | SHP2 N-SH2 domain T52S 0.784 | [2] 0.868

CSRGLERYISQEEGP [ZN318_HUMAN_205]
inactive: SHP2 C-SH2 domain E139D 0.974 | [1] 1.12 | SHP2 N-SH2 domain L43F 1.06 | SHP2 N-SH2 domain T42A 1.14 | SHP2 N-SH2 domain T52S 1.16 | [2] 1.16

YDKDRSGYIDEHELD [CALB2_HUMAN_214]
inactive: SHP2 C-SH2 domain E139D 0.966 | [1] 0.757 | SHP2 N-SH2 domain L43F 0.91 | SHP2 N-SH2 domain T42A 0.906 | SHP2 N-SH2 domain T52S 0.985 | [2] 0.977
